From the supplement of paper PMC12217912 come the findings set out here.

B1: TEV protease; numbered along this chain (parent)
chain: MGESLFKGPRDYNPISSSICHLTNESDGHTTSLYGIGFGPFIITNKHLFRRNNGTLVVQSLHGVFKVKDTTTLQQHLVDGRDMIIIRMPKDFPPFPQKLKFREPQREERICLVTTNFQTKSMSSMVSDTSCTFPSGDGIFWKHWIQTKDGQCGSPLVSTRDGFIVGIHSASNFTNTNNYFTSVPKNFMELLTNQEAQQWVSGWRLNADSVLWGGHKVFMVKPEEPFQPVKEATQL

Variants of B1 are the subject of this assay. The assay is described as follows: raw area under fraction-flipped curve 0-4 h after induction (AUC4h, not background-subtracted), DNA-recorder readout of cleavage of the substrate (dimensionless); higher = more cleavage of the substrate by the protease variant. The conditions noted are these: temperature: 34 °C; time window: 0-4 h after rhamnose induction. As to the method: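 In vivo DNA recorder in E. coli TOP10(DE3) ΔrhaA at 34 °C. Each TEVp single-site mutant (parent TEVp 0) is paired with a single-site variant of the 7-mer TEVs (canonical ENLYFQ|S). The substrate sits between flexible linkers in a Bxb1-sfGFP-TEVs-SsrA fusion, so cleavage stabilises Bxb1 and speeds flipping of a recombination array, read by NGS. The value is the raw area under the fraction-flipped curve over 0-4 h after rhamnose induction (AUC4h), with ≥20 reads per time point. It is not background-subtracted; inactive controls average about 0.047.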

The other results are listed elsewhere or left out. Sequences were assembled here from the parent chain. Inactive controls read about 0.05.
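Further: Bxb1 expression induced with 0.2% (w/v) L-rhamnose at OD600 near 0.5, cultures sampled hourly, flipped fraction per protease–substrate barcode pair counted by paired-end Illumina sequencing.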

Take MGESLFKGPRDYNPISSSICHLTNESDGHTTSLYGIGFGPFIITNKHLFRRNNGTLVVYSLHGVFKVKDTTTLQQHLVDGRDMIIIRMPKDFPPFPQKLKFREPQREERICLVTTNFQTKSMSSMVSDTSCTFPSGDGIFWKHWIQTKDGQCGSPLVSTRDGFIVGIHSASNFTNTNNYFTSVPKNFMELLTNQEAQQWVSGWRLNADSVLWGGHKVFMVKPEEPFQPVKEATQL [Q59Y]: the “area with substrate ENLYFAS” value was 0.0393, the “area with substrate ENLYFCS” value came out at 0.0523, the “area with substrate ENLYFES” value turned out to be 0.0535 and the “area with substrate ENLYFFS” value is 0.0391. Also, the “area with substrate ENLYFIS” value came to 0.0513, the “area with substrate ENLYFNS” value was found to be 0.0671, the “area with substrate ENLYFPS” value was determined as 0.0504 and the “area with substrate ENLYFRS” value was determined as 0.0577. Besides, the “area with substrate ENLYFSS” value came to 0.0591, the “area with substrate ENLYFTS” value was determined as 0.0564 and the “area with substrate ENLYFWS” value was determined as 0.05.

MGESLFKGPRDYNPISSSICHLTNESDGHTTSLYGIGFGPFIITNKHLFRRNNGTLVKQSLHGVFKVKDTTTLQQHLVDGRDMIIIRMPKDFPPFPQKLKFREPQREERICLVTTNFQTKSMSSMVSDTSCTFPSGDGIFWKHWIQTKDGQCGSPLVSTRDGFIVGIHSASNFTNTNNYFTSVPKNFMELLTNQEAQQWVSGWRLNADSVLWGGHKVFMVKPEEPFQPVKEATQL [V58K]: the “area with substrate ENLYFAS” value came out at 0.0519, the “area with substrate ENLYFCS” value was 0.0518, the “area with substrate ENLYFFS” value was found to be 0.0565 and the “area with substrate ENLYFHS” value was 0.0379. Also, the “area with substrate ENLYFIS” value was determined as 0.0492, the “area with substrate ENLYFLS” value was found to be 0.0403, the “area with substrate ENLYFMS” value was found to be 0.03 and the “area with substrate ENLYFRS” value stood at 0.0542. The “area with substrate ENLYFSS” value turned out to be 0.042 and the “area with substrate ENLYFYS” value is 0.0531.

On to MGESLFKGPRDYNPISSSICHLTNESDGHTTSLYGIGFGPFIITNKHLFRRNNGYLVVQSLHGVFKVKDTTTLQQHLVDGRDMIIIRMPKDFPPFPQKLKFREPQREERICLVTTNFQTKSMSSMVSDTSCTFPSGDGIFWKHWIQTKDGQCGSPLVSTRDGFIVGIHSASNFTNTNNYFTSVPKNFMELLTNQEAQQWVSGWRLNADSVLWGGHKVFMVKPEEPFQPVKEATQL [T55Y], for which the “area with substrate ENLYFAS” value came to 0.0627, the “area with substrate ENLYFDS” value is 0.0522, the “area with substrate ENLYFES” value came out at 0.0497 and the “area with substrate ENLYFFS” value came to 0.0572. Besides, the “area with substrate ENLYFHS” value was found to be 0.0598, the “area with substrate ENLYFIS” value came out at 0.0544, the “area with substrate ENLYFLS” value is 0.0591 and the “area with substrate ENLYFMS” value came to 0.0543. In addition, the “area with substrate ENLYFNS” value came to 0.0624, the “area with substrate ENLYFPS” value came out at 0.0594, the “area with substrate ENLYFRS” value amounted to 0.066 and the “area with substrate ENLYFSS” value was 0.0564. For the same variant, the “area with substrate ENLYFTS” value was determined as 0.0562, the “area with substrate ENLYFVS” value worked out at 0.0609, the “area with substrate ENLYFWS” value turned out to be 0.0382 and the “area with substrate ENLYFYS” value came to 0.0479.

Turning to MGESLFKGPRDYNPISSSICHLTNESDGHTTSLYGIGFGPFIITNKHLFRRNTGTLVVQSLHGVFKVKDTTTLQQHLVDGRDMIIIRMPKDFPPFPQKLKFREPQREERICLVTTNFQTKSMSSMVSDTSCTFPSGDGIFWKHWIQTKDGQCGSPLVSTRDGFIVGIHSASNFTNTNNYFTSVPKNFMELLTNQEAQQWVSGWRLNADSVLWGGHKVFMVKPEEPFQPVKEATQL [N53T], the “area with substrate ENLYFAS” value turned out to be 0.0763, the “area with substrate ENLYFCS” value stood at 0.0748, the “area with substrate ENLYFDS” value came to 0.0518 and the “area with substrate ENLYFES” value came out at 0.0656. In addition, the “area with substrate ENLYFGS” value amounted to 0.0554, the “area with substrate ENLYFIS” value was found to be 0.0575, the “area with substrate ENLYFKS” value is 0.0428 and the “area with substrate ENLYFMS” value was determined as 0.0615. Also, the “area with substrate ENLYFNS” value came out at 0.0636, the “area with substrate ENLYFPS” value is 0.0217, the “area with substrate ENLYFRS” value is 0.0578 and the “area with substrate ENLYFSS” value came to 0.0415. In addition, the “area with substrate ENLYFVS” value was found to be 0.0617, the “area with substrate ENLYFWS” value stood at 0.047 and the “area with substrate ENLYFYS” value was determined as 0.0402.

As to MGESLFKGPRDYNPISSSICHLTNESDGHTTSLYGIGFGPFIITNKHLFRRNIGTLVVQSLHGVFKVKDTTTLQQHLVDGRDMIIIRMPKDFPPFPQKLKFREPQREERICLVTTNFQTKSMSSMVSDTSCTFPSGDGIFWKHWIQTKDGQCGSPLVSTRDGFIVGIHSASNFTNTNNYFTSVPKNFMELLTNQEAQQWVSGWRLNADSVLWGGHKVFMVKPEEPFQPVKEATQL [N53I], the “area with substrate ENLYFAS” value was 0.0547, the “area with substrate ENLYFCS” value came to 0.0575, the “area with substrate ENLYFDS” value was 0.0591 and the “area with substrate ENLYFES” value is 0.056. For the same variant, the “area with substrate ENLYFFS” value was 0.0657, the “area with substrate ENLYFHS” value amounted to 0.0418, the “area with substrate ENLYFIS” value came to 0.0652 and the “area with substrate ENLYFKS” value was found to be 0.0604. Besides, the “area with substrate ENLYFLS” value is 0.0584, the “area with substrate ENLYFMS” value was 0.0579, the “area with substrate ENLYFPS” value came to 0.123 and the “area with substrate ENLYFRS” value stood at 0.09. Moreover, the “area with substrate ENLYFTS” value was found to be 0.0657, the “area with substrate ENLYFVS” value was 0.0504 and the “area with substrate ENLYFWS” value worked out at 0.0612.

Consider MGESLFKGPRDYNPISSSICHLTNESDGHTTSLYGIGFGPFIITNKHLFRRNRGTLVVQSLHGVFKVKDTTTLQQHLVDGRDMIIIRMPKDFPPFPQKLKFREPQREERICLVTTNFQTKSMSSMVSDTSCTFPSGDGIFWKHWIQTKDGQCGSPLVSTRDGFIVGIHSASNFTNTNNYFTSVPKNFMELLTNQEAQQWVSGWRLNADSVLWGGHKVFMVKPEEPFQPVKEATQL [N53R], for which the “area with substrate ENLYFAS” value was determined as 0.0583, the “area with substrate ENLYFES” value was determined as 0.0725, the “area with substrate ENLYFFS” value turned out to be 0.0649 and the “area with substrate ENLYFHS” value came out at 0.0478. For the same variant, the “area with substrate ENLYFIS” value turned out to be 0.0561, the “area with substrate ENLYFKS” value came out at 0.0829, the “area with substrate ENLYFMS” value turned out to be 0.0768 and the “area with substrate ENLYFPS” value was 0.0877. The “area with substrate ENLYFRS” value stood at 0.0642, the “area with substrate ENLYFSS” value stood at 0.0538, the “area with substrate ENLYFTS” value came out at 0.0666 and the “area with substrate ENLYFVS” value turned out to be 0.0608. For the same variant, the “area with substrate ENLYFWS” value came out at 0.0528 and the “area with substrate ENLYFYS” value amounted to 0.0473.

MGESLFKGPRDYNPISSSICHLTNESDGHTTSLYGIGFGPFIITNKHLFRRNNYTLVVQSLHGVFKVKDTTTLQQHLVDGRDMIIIRMPKDFPPFPQKLKFREPQREERICLVTTNFQTKSMSSMVSDTSCTFPSGDGIFWKHWIQTKDGQCGSPLVSTRDGFIVGIHSASNFTNTNNYFTSVPKNFMELLTNQEAQQWVSGWRLNADSVLWGGHKVFMVKPEEPFQPVKEATQL [G54Y]: the “area with substrate ENLYFAS” value was determined as 0.0308, the “area with substrate ENLYFCS” value came to 0.0514, the “area with substrate ENLYFDS” value amounted to 0.104 and the “area with substrate ENLYFES” value worked out at 0.0415. Also, the “area with substrate ENLYFFS” value came out at 0.0672, the “area with substrate ENLYFHS” value is 0.0779, the “area with substrate ENLYFIS” value was 0.0732 and the “area with substrate ENLYFKS” value was found to be 0.0634. For the same variant, the “area with substrate ENLYFNS” value turned out to be 0.06, the “area with substrate ENLYFWS” value is 0.0299 and the “area with substrate ENLYFYS” value was determined as 0.0562.

With MGESLFKGPRDYNPISSSICHLTNESDGHTTSLYGIGFGPFIITNKHLFRRNNTTLVVQSLHGVFKVKDTTTLQQHLVDGRDMIIIRMPKDFPPFPQKLKFREPQREERICLVTTNFQTKSMSSMVSDTSCTFPSGDGIFWKHWIQTKDGQCGSPLVSTRDGFIVGIHSASNFTNTNNYFTSVPKNFMELLTNQEAQQWVSGWRLNADSVLWGGHKVFMVKPEEPFQPVKEATQL [G54T], the “area with substrate ENLYFAS” value came to 0.0521, the “area with substrate ENLYFCS” value amounted to 0.0606, the “area with substrate ENLYFDS” value turned out to be 0.0504 and the “area with substrate ENLYFES” value stood at 0.0617. In addition, the “area with substrate ENLYFFS” value stood at 0.0574, the “area with substrate ENLYFGS” value is 0.0613, the “area with substrate ENLYFHS” value amounted to 0.0644 and the “area with substrate ENLYFIS” value was 0.0515. Also, the “area with substrate ENLYFKS” value was 0.059, the “area with substrate ENLYFMS” value is 0.0591, the “area with substrate ENLYFNS” value came out at 0.0616 and the “area with substrate ENLYFPS” value came out at 0.0555. Further, the “area with substrate ENLYFRS” value stood at 0.0644, the “area with substrate ENLYFTS” value stood at 0.0585, the “area with substrate ENLYFVS” value is 0.051 and the “area with substrate ENLYFWS” value stood at 0.0546. The “area with substrate ENLYFYS” value amounted to 0.0542.

As to MGESLFKGPRDYNPISSSICHLTNESDGHTTSLYGIGFGPFIITNKHLFRRNNNTLVVQSLHGVFKVKDTTTLQQHLVDGRDMIIIRMPKDFPPFPQKLKFREPQREERICLVTTNFQTKSMSSMVSDTSCTFPSGDGIFWKHWIQTKDGQCGSPLVSTRDGFIVGIHSASNFTNTNNYFTSVPKNFMELLTNQEAQQWVSGWRLNADSVLWGGHKVFMVKPEEPFQPVKEATQL [G54N], the “area with substrate ENLYFAS” value came to 0.0553, the “area with substrate ENLYFCS” value was determined as 0.0495, the “area with substrate ENLYFES” value amounted to 0.0602 and the “area with substrate ENLYFFS” value stood at 0.0682. Besides, the “area with substrate ENLYFGS” value came out at 0.0597, the “area with substrate ENLYFIS” value was 0.062, the “area with substrate ENLYFKS” value is 0.0605 and the “area with substrate ENLYFLS” value worked out at 0.0608. For the same variant, the “area with substrate ENLYFMS” value stood at 0.0652, the “area with substrate ENLYFNS” value came to 0.061, the “area with substrate ENLYFPS” value amounted to 0.0625 and the “area with substrate ENLYFRS” value stood at 0.0493. Further, the “area with substrate ENLYFSS” value was 0.0632, the “area with substrate ENLYFTS” value was found to be 0.0618, the “area with substrate ENLYFVS” value came to 0.0643 and the “area with substrate ENLYFYS” value was 0.0468.
